Measurements published in the supplement of paper PMC12645437, “Orthogonal IMiD-Degron Pairs Induce Selective Protein Degradation in Cells” (ACS Chemical Biology, 2025).
The list shows a part of the results.

Biological target: no compound (DMSO)
Experiment: log2 fold change of degron read counts, EGFP-low vs EGFP+ sorted cells; higher = lower degron-EGFP level without compound (poor expression or instability)
Conditions: compound: DMSO control; 18 h
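Also: jurkat cells carrying a lentiviral library of mutant zinc finger degrons fused to EGFP plus mCherry, mCherry+ cells FACS sorted, degron abundance counted by next-generation sequencing.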

Row | Sequence | log2 fold change of degron read counts
1 | FHCPVCGAEFTQKGNLLRHIKL | -0.681
2 | FFCNICGAWFTQKGNLLRHIKL | 0.518
3 | FCCNVCGATFTQKGNLLRHIKL | -1.46
4 | FFCPICGANFTQKGNLLRHIKL | 0.329
5 | FCCNICGAGFTQKGNLLRHIKL | -0.467
6 | FCCSVCGHWFTQKGNLLRHIKL | 0.669
7 | FSCSVCGHHFTQKGNLLRHIKL | 0.0262
8 | FYCDQCGAVFTQKGNLLRHIKL | -0.154
9 | LQCPICGFFCTQKGNLLRHIKL | 1.11
10 | FKCDVCGAFFTQKGNLLRHIKL | -2.24
11 | FICDVCGATFTQKGNLLRHIKL | -1.97
12 | FECDQCGALFTQKGNLLRHIKL | -2.93
13 | FMCPICGHCFTQKGNLLRHIKL | -0.523
14 | FTCNVCGAEFTQKGNLLRHIKL | -2.9
15 | FACSVCGHQFTQKGNLLRHIKL | -1.79
16 | FQCSVCGHFFTQKGNLLRHIKL | -0.374

Row | Sequence | log2 fold change of degron read counts
17 | FACDQCGAEFTQKGNLLRHIKL | -1.83
18 | FDCDQCGADFTQKGNLLRHIKL | -0.665
19 | FMCEQCGAVFTQKGNLLRHIKL | -1.05
20 | FLCEVCGAWFTQKGNLLRHIKL | -0.625
21 | FQCDQCGAFFTQKGNLLRHIKL | -1.02
22 | FECDICGARFTQKGNLLRHIKL | -1.78
23 | FDCPICGREFTQKGNLLRHIKL | -0.457
24 | FMCEICGAKFTQKGNLLRHIKL | -1.03
25 | LYCPICGFDCTQKGNLLRHIKL | 1.1
26 | LNCEICGFHCTQKGNLLRHIKL | 0.707
27 | FACNQCGRCFTQKGNLLRHIKL | -0.212
28 | FYCEICGRDFTQKGNLLRHIKL | -1.42
29 | FACEVCGAVFTQKGNLLRHIKL | -1.54
30 | LKCNQCGFICTQKGNLLRHIKL | -0.327
31 | FGCPQCGAEFTQKGNLLRHIKL | -4.69
32 | FGCPVCGASFTQKGNLLRHIKL | -0.177
